Experimental data taken from PubChem BioAssay AID488969 (Vanderbilt High Throughput Screening Facility, 2010).
Whole data set: some 110,000 compounds, median “z-score” near -0.1, cut for the highest 2% near 2. This is one part of the list. Activity calls are given as the source filed them.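 The calls were made as follows: active = z-score in the third read window above 3 or below -3; inactive = the rest.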

molecular target: Metabotropic glutamate receptor 8 (Rattus norvegicus) (UniProt P70579); assay: mGluR8 Gi/Go-coupled signaling modulation – cell-based, rat, thallium flux, HTS, primary screen (AID 488969); settings: HEK293 rat mGluR8, GIRK (G protein-gated inwardly rectifying potassium channel) thallium flux, FluoZin2; at 10 µM; stronger effect = higher value; submaximal glutamate (EC20) added with thallium
UniProt P70579, sequence (P70579 whole entry, looked up): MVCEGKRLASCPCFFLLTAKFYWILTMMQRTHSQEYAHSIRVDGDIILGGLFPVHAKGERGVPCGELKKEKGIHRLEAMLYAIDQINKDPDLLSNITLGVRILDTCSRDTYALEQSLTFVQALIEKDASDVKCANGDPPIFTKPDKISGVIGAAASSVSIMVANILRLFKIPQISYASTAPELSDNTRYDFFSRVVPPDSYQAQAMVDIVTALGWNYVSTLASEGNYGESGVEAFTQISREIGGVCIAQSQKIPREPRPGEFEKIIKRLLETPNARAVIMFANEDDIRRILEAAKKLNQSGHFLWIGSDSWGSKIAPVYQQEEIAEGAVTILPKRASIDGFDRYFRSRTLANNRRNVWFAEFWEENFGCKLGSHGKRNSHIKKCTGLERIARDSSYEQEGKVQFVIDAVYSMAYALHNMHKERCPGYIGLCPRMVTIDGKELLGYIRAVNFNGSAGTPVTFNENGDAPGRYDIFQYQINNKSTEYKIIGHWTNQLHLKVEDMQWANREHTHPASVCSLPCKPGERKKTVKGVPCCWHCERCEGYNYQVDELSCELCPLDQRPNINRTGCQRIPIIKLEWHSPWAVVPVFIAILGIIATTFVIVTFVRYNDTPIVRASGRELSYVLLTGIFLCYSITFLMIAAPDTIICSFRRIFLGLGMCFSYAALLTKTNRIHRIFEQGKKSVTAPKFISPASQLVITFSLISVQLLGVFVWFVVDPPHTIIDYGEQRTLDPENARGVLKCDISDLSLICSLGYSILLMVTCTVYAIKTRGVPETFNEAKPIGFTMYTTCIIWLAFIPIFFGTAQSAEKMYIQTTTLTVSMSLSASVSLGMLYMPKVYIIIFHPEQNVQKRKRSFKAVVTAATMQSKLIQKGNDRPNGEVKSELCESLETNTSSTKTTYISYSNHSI

Row | SMILES | z-score
1 | CCc1nc(SCc2cccnc2)c2c(=O)n(C)c(=O)n(C)c2n1 | -0.548
2 | COCCn1c(Sc2ccc(C)cc2)nc2c1c(=O)[nH]c(=O)n2C | 0.355
3 | CCOCc1cnc(C)nc1NCC(=O)c1c(C)[nH]c2ccccc12 | 0.343
4 | Cc1nc(C)c(C(=O)NCc2ccc(Cl)cc2)o1 | 0.221
5 | COc1ccccc1C1(O)CCN(C(=O)c2cccs2)CC1 | 0.76
6 | Cc1cc(-c2csc(NC(=O)c3ccccc3C(F)(F)F)n2)c(C)n1Cc1ccccc1 | -0.39
7 | CC(=O)Nc1ccc(S(=O)(=O)N(C)CC(=O)OCC(=O)N2CCc3ccccc32)cc1 | -0.155
8 | Cc1noc(C)c1CSc1nnc(C)c(=O)[nH]1 | -0.108
9 | Cc1cccc(NC(=O)N(Cc2cc3cc(C)cc(C)c3[nH]c2=O)CC2COCCO2)c1 (configuration not stated) | -0.561
10 | Nc1nnc(-c2cn(-c3ccccc3)nc2-c2ccccc2)o1 | 0.187
11 | CCCCCCCCOC(=O)/C=C/c1c(C)[nH]c(=O)[nH]c1=O | -0.128
12 | N[C@@H](Cc1ccccc1)c1nnc2sc(SCc3ccccc3)nn12 | -0.42
13 | O=C(CSC(=S)N1CCOCC1)N1N=CCC1c1ccccc1 (configuration not stated) | -0.267
14 | CCOc1ccc(Cl)cc1S(=O)(=O)N1CCCC1 | -0.083
15 | COC(=O)c1[nH]c2cccc(OC)c2c1NC(=O)C(C)N1CCC(C)CC1 (configuration not stated) | -0.133
16 | CC(C)NC(=O)c1ccccc1-c1ccccc1 | -0.135
17 | Clc1ccc(CSc2nc3ccncc3[nH]2)cc1 | 0.673
18 | COc1cc(CNCC(C)C)cc(Br)c1OCC(=O)Nc1ccccc1 | 2.21
19 | CC(=O)Oc1c(C(=O)c2nnc(C)o2)c(=O)n(Cc2ccccc2)c2ccccc12 | 2.07

Row | SMILES | z-score
20 | COc1ccc(S(=O)(=O)N(CCc2ccccc2)CC(=O)O)cc1C | 0.397
21 | CCC(=O)N1CCc2cc(S(=O)(=O)NC(C(=O)Nc3cccc(C)n3)C(C)C)ccc21 (configuration not stated) | 0.0148
22 | CCN(CC)CC(=O)NN=C(c1ccccc1)c1ccccc1 | -0.364
23 | Cn1cccc1/C=C1\SC(=O)N(CC(=O)Nc2ccc(Cl)cc2)C1=O | -0.123
24 | CCNc1nc(Cl)nc(NCc2ccccc2)n1 | -0.148
25 | Cc1ccc(-c2n[nH]c(=S)n2/N=C/C=C/c2ccccc2[N+](=O)[O-])cc1 | 0.382
26 | FC(F)(F)c1ccc(Sc2nnc(-c3cccs3)n2CC2CCCO2)nc1 (configuration not stated) | 0.926
27 | CSc1cccc(NC(=O)CN(c2ccccc2)S(=O)(=O)N(C)C)c1 | active: 3.6
28 | CCOC(=O)c1sc(N2N=C(C)/C(=C\c3ccc(OCC(=O)OC)cc3)C2=O)nc1C | -0.119
29 | COc1ccccc1OCC(=O)NCCSCc1cccc(Cl)c1 | -0.223
30 | O=C(NC(=S)Nc1ccc2c(c1)OCO2)c1ccc(Cl)cc1 | 0.837
31 | CCN1C(=O)C2(C(C#N)=C(N)Oc3n[nH]c(-c4ccccc4)c32)c2ccccc21 (configuration not stated) | -0.219
32 | O=C(NCCN1CCOCC1)c1cc(Sc2ccccc2Cl)nc2ccccc12 | -1.39
33 | CCOc1ncccc1C(=O)OCCN1C(=O)c2ccccc2C1=O | 0.0749
34 | CC(NC(=O)OCc1ccccc1)C(=O)NCC1CCCO1 (configuration not stated) | 1.09
35 | Cc1ccc(S(=O)(=O)NCC2CCC(C(=O)O)CC2)cc1 (configuration not stated) | -0.694
36 | CCOc1cc(C(=O)Nc2cc(=O)n(C)c(=O)n2C)cc(OCC)c1OCC | -0.395
37 | Cc1[nH]n(-c2ccc([N+](=O)[O-])cc2)c(=O)c1C=NCCN1CCN(C(=O)c2cccc(F)c2)CC1 | 0.0422
38 | O=C(Nc1nnc(SCc2ccccc2F)s1)c1ccco1 | -0.172

Row | SMILES | z-score
39 | COc1cccc(C(=O)NC2(C(F)(F)F)N=C3SCCN3C2=O)c1 (configuration not stated) | 0.254
40 | O=C(NCc1cccc(C(F)(F)F)c1)C1CC(c2c(Cl)cccc2Cl)=NO1 (configuration not stated) | -0.217
41 | CCCn1c(N2CCN(CC(=O)Nc3ccc4c(c3)OCCO4)CC2)nc2ccccc21 | -0.631
42 | Cn1c(=O)oc2cc(S(=O)(=O)NCCN3CCN(c4ccccc4F)CC3)ccc21 | -0.14
43 | COc1ccc(CNC(=O)c2ccc3c(c2)N(C)C(=O)CS3=O)cc1 (configuration not stated) | -0.118
44 | N#C/C(=C\c1cc([N+](=O)[O-])c(N2CCCCC2)cc1N1CCCCC1)c1nn(-c2ccccc2)c(N)c1C#N | 0.331
45 | CNC(=O)/C(C#N)=C/c1ccc(-c2ccc(OC)cc2[N+](=O)[O-])o1 | -0.186
46 | CCCCn1c(NCc2ccccc2O)nc2ccccc21 | 0.033
47 | Cc1ccc(NC(=O)c2cccc3c2-c2ccccc2C3=O)cc1C | -0.15
48 | COC(=O)Cc1c(C)nc2nc(-c3ccco3)[nH]n2c1=O | 2.68
49 | O=C(CSc1nnc2c3ccccc3c3ccccc3c2n1)Nc1ccccc1F | -0.673
50 | CCCCSc1nn[nH]n1 | -0.967
51 | Cc1cc(C)cc(CSc2nnc(C)c(=O)[nH]2)c1 | -0.192
52 | CCS(=O)(=O)N1CCC(C(=O)NCc2cccc(OC)c2)CC1 | -0.486
53 | Cc1nc2c(C#N)c(C)[nH]n2c(=O)c1Cc1ccccc1 | -0.679
54 | CC1CCCN(C(=O)Cn2nnc(-c3cccnc3)n2)C1 (configuration not stated) | -0.208
55 | CCN1CCN(c2ncnc3c2cnn3-c2ccccc2)CC1 | 0.0325
56 | CCOC(=O)c1ccccc1NS(=O)(=O)c1ccccc1 | -0.878
57 | O=C(Oc1ccccc1C(=S)N1CCCCC1)c1cc([N+](=O)[O-])cc([N+](=O)[O-])c1 | 1.47
